# Measured values from article PMC4336329 (PLoS ONE, 2015).
# Screen size: about 310,000 compounds; about 2,200 (0.71%) showed an effect of 50% or more. The effect is printed as a negative number. The list shows a part of the results.
# Target: human ether-à-go-go-related gene (hERG) potassium channel (human, UniProt Q12809)
# Assay: primary screen, population patch clamp on CHO cells stably expressing hERG
# human ether-à-go-go-related gene (hERG) potassium channel, sequence (Q12809 whole entry, looked up): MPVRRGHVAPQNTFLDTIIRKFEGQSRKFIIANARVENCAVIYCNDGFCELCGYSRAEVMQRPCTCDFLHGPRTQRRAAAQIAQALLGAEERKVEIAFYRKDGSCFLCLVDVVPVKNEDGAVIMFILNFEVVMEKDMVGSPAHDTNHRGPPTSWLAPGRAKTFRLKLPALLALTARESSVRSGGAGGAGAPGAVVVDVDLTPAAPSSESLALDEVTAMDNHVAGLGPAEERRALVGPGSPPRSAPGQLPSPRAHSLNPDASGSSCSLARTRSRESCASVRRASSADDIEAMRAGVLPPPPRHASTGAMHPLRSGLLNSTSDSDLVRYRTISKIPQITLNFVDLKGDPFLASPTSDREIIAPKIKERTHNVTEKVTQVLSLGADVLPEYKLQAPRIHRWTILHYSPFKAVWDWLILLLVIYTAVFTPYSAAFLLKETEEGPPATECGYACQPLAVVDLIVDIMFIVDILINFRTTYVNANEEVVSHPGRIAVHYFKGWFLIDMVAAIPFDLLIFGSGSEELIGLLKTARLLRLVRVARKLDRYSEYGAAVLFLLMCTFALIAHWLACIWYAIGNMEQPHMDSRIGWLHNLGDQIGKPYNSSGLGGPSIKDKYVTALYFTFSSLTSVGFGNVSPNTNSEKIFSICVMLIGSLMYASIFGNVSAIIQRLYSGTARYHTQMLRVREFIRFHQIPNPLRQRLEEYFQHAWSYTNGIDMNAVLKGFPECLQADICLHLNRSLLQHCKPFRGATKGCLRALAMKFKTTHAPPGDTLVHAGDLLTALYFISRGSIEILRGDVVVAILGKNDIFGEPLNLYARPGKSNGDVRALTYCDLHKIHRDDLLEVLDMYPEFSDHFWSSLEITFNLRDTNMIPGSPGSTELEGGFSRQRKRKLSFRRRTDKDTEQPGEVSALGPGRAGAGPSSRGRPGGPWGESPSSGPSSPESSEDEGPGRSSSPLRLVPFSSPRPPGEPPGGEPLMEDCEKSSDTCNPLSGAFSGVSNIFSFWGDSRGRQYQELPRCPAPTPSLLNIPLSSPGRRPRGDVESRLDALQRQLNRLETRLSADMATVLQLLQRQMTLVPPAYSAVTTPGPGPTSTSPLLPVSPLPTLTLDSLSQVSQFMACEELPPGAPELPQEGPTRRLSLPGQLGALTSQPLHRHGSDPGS
row,SMILES,"hERG current change (%, negative = inhibition) at 1uM [%]"
1,CCc1nc(SCC(=O)Nc2nnc(CC)s2)c2c(C)c(C)sc2n1,8.46
2,CCC(C(=O)O)n1nnc(-c2ccc(OCc3ccccc3)c(OC)c2)n1 (centres unmarked),11.3
3,CC(C(=O)Nc1ccc(Cl)cc1)N(C)Cc1cccs1 (centres unmarked),17.4
4,Cc1nn(-c2ccccc2)c(C)c1/C=C1\C(=O)N(C)C(=S)N1C,2.94
5,O=C(N/N=C/c1ccco1)c1cc([N+](=O)[O-])cc([N+](=O)[O-])c1,4.49
6,O=Cc1ccc(C(=O)OCC(=O)Nc2ccc(F)cc2F)cc1,15
7,Cc1ccc(CN2[C@@H]3c4ccccc4C[C@@H]3OCCS2(=O)=O)cc1,14.3
8,CCOC(=O)c1c(S(=O)(=O)NCC(=O)N2CCN(c3ccccc3OC)CC2)c(C)n(C)c1C,13.3
9,CC(=O)NC(Cc1ccc(N(CCCl)CCCl)cc1)C(=O)NCC(=O)NCC(=O)O (centres unmarked),9.88
10,Nc1ccc2nc(SCc3ccc([N+](=O)[O-])cc3)sc2c1,-5.18
11,O=C(COC(=O)/C=C/c1ccc(C(F)(F)F)cc1)NC1CC1,4.17
12,CCCCNC(=S)N/N=C1\CCCCc2ccccc21,-8.7
13,CCn1c(SCC(=O)Nc2nc(C)c(C)s2)nnc1-c1cccs1,-62.5
14,CC(C)C(=O)Nc1ccc(C(=O)NNC(=O)c2cccs2)cc1,7.81
15,O=C(Cc1coc2ccc3ccccc3c12)NCc1cccs1,12.2
16,CC(C)(C)C1CCC(OCC(O)CN2CCN(c3ccccn3)CC2)CC1.Cl (centres unmarked),9.29
17,COc1ccc(OC)c(S(=O)(=O)Nc2c(C)n(C)n(-c3ccccc3)c2=O)c1,3.33
18,CS(=O)(=O)Nc1ccc2c(c1)C(=O)OC2,18
19,O=C(c1ccccc1)N(Cc1ccc(F)cc1)C1CCS(=O)(=O)C1 (centres unmarked),7.52
20,COc1ccc(CCN(C)C(=O)c2ccc(S(=O)(=O)Nc3ccccc3F)cc2)cc1OC,10.7
21,CCc1noc(C)c1C(=O)N(CC)CC(=O)NCc1ccc(Cl)cc1,8.68
22,Cc1ccc(C)c(NC(=O)CSc2sc3c(O)cc(=O)[nH]c3c2C#N)c1,13.9
23,O=C(COC(=O)CNC(=O)c1ccccc1)Nc1cccc(Br)c1,11.6

row,SMILES,"hERG current change (%, negative = inhibition) at 1uM [%]"
1,COCCNc1ccc([N+](=O)[O-])cc1C(=O)Nc1cccc(C)n1,-32.5
2,O=C1Nc2ccccc2N=C(c2ccccc2)c2ccccc21,11.1
3,COc1ccc(N=Cc2cc(Cl)ccc2O)cc1Cl,7.38
4,Cc1c(CCCC(=O)O)sc(N)c1C(=O)c1cccc(C(F)(F)F)c1,16.4
5,CC(=O)Nc1nc(SCCCc2ccccc2)n[nH]1,-17.7
6,O=C(Nc1cccnc1)C1(c2ccccc2)CCCC1,7.53
7,CSc1sccc1/C=N/O,16.1
8,CC(C)Oc1ccccc1OCCN(C)C.O=C(O)C(=O)O,4.04
9,CCC(=O)Nc1cccc(NC(=O)c2cccc([N+](=O)[O-])c2C)c1,4.66
10,COc1ccnc2c1c(=O)n(Cc1cccc(Cl)c1)c(=O)n2C,9.1
11,CCc1cc(-c2n[nH]c(C)c2-c2nc(C)cs2)c(O)cc1OC,10.9
12,O=C(NCCc1ccccc1)C1CCC(Cn2c(=O)c3ccccc3n(Cc3cccnc3)c2=O)CC1 (centres unmarked),4.89
13,CC(=O)NC(Cc1ccc(F)cc1)C(=O)NC1CCN(C(=O)Nc2ccc(F)cc2)CC1 (centres unmarked),10.6
14,COc1cc(CCC(=O)OCC(=O)Nc2cccc(S(=O)(=O)N(C)C)c2)cc(OC)c1OC,-5.13
15,COc1ccc(OCC(=O)NC2CCCCCCC2)cc1,8.18
16,COC(C(=O)Nc1ccc(F)cc1F)c1ccccc1 (centres unmarked),3.37
17,Cc1ccc(NC(=O)c2cc(-c3ccccc3)n(CCCN3CCOCC3)c2C)cc1,4.23
18,COc1ccc(NC(=O)[C@H](C)NC(=O)C2CCN(S(=O)(=O)c3ccc(C)cc3)CC2)cc1,7.16
19,COc1ccc2[nH]cc(CCn3ccc(=O)c(C)c3C)c2c1,18
20,COc1ccc2c(c1)n([O-])c1c([n+]2=O)CCC1,4.03
21,CC1Cc2ccccc2N1C(=O)CCn1c(=O)oc2ccccc21 (centres unmarked),13.7
22,Cc1cc(C)n2nc(C(=O)OCC(=O)c3cc(C)n(CC4CCCO4)c3C)nc2n1 (centres unmarked),15.5
23,Cc1oc(-c2cc(F)cc(F)c2)nc1CN1CCSCC1,4.74

row,SMILES,"hERG current change (%, negative = inhibition) at 1uM [%]"
1,CCc1ccccc1NC(=S)N(CCCN1CCOCC1)Cc1ccccn1,3.92
2,CCCC1C2C(=O)N(c3ccccc3OC)C(=O)C2ON1c1ccccc1 (centres unmarked),10.2
3,O=C(CCc1nc(-c2ccccc2)no1)N1CCCC1,13.6
4,CCOC(=O)c1sc(=NC(=O)c2cccc(OC)c2)n(C)c1C,7.41
5,O=C(NCCN1CCOCC1)c1sc2cc(Cl)ccc2c1Cl,6.87
6,CCOC(=O)Nc1cccc(OCC(=O)Nc2ccc(OC)cc2OC)c1,11
7,CCCn1ccnc1SCC(=O)Nc1c(C)n(C)n(-c2ccccc2)c1=O,-16.1
8,Cc1cccc(Sc2ccc([N+](=O)[O-])cc2[N+](=O)[O-])n1,16.9
9,CCOCCCn1c(C)nc2c[n+](CC(=O)c3ccc4ccccc4c3)cc(Br)c21.[Br-],8.91
10,O=c1[nH]c(C(Cl)(Cl)Cl)nc2ccc3ccccc3c12,9.83
11,CN(CC(=O)Nc1ccccc1Cl)C(=O)C1CSC2(C)CCC(=O)N12 (centres unmarked),8.28
12,O=C(NCCCN1CCC(Cc2ccccc2)CC1)c1ccc2nc(N3CCOCC3)sc2c1,-15
13,CCCCn1nnnc1SCC(=O)Nc1cccc(C)c1,11.1
14,CCCCOC(=O)/C=C/c1ccc(OC(=O)OC)c(OC(=O)OC)c1,10.7
15,CC(=O)c1cccc(NC(=S)NC(=O)Cc2ccc(Cl)cc2)c1,14.7
16,COC(=O)CN1C(=O)C(O)(CC(=O)c2ccc(Cl)cc2)c2ccccc21 (centres unmarked),3.9
17,CC(C)CCNC(=O)C(=O)Nc1cc2c3c(c1)CCC(=O)N3CCC2,12.5
18,O=C(COC(=O)/C=C/c1ccccc1)Nc1ccc2c(c1)OCCO2,-5.37
19,COc1cccc(NC(=O)NCc2ccccc2Cl)c1,4
20,O=C(Cn1c(=O)cnc2ccccc21)NNC(=O)c1ccc(Cl)cc1,15.9
21,CN1CCN(S(=O)(=O)c2cccc(C(=O)N(Cc3nnc(-c4ccccc4Cl)o3)C3CC3)c2)CC1,-2.29
22,C[C@]12C=CC(=O)C=C1CC[C@@H]1C2C(O)C[C@@]2(C)C1CC[C@]2(O)C(=O)COC(=O)CCC(=O)NC(CC(=O)O)C(=O)O (some centres unmarked),0.298
23,O=c1c2nncn2c2cc(C(F)(F)F)ccc2n1CCNc1ncc(C(F)(F)F)cc1Cl,2.31

row,SMILES,"hERG current change (%, negative = inhibition) at 1uM [%]"
1,O=C(Nc1ccc(Br)cn1)c1ccc(COc2c(F)c(F)cc(F)c2F)o1,5.22
2,CCCCSCCCNC(=O)CCCN1C(=O)c2ccccc2Sc2ncccc21,5.99
3,CN(Cc1ccccc1)C(=O)c1cc(=O)[nH]c2ccccc12,13.2
4,C(#CCN1CCCCC1)COCc1ccccc1.Cl,9.67
5,O=C(c1ccc2c(c1)CCN2S(=O)(=O)c1ccccc1)N1CCN(c2ccccc2)CC1,19.5
6,CC1(C)CC(=O)c2c(O)cc(OCC(=O)N3CCN(c4ccccc4)CC3)cc2O1,9
7,COc1cc(C(=O)Oc2cc(C)[nH]c(=O)c2[N+](=O)[O-])cc(OC)c1OC,5.77
8,Cc1cccc(NC(=O)CC23CC4CC(C2)CC(n2nnc(C)n2)(C4)C3)c1,1.99
9,Cc1cc(OCCCN2CCCC2)ccc1Cl,1.47
10,CCN(CC(=O)NCc1ccc(Cl)cc1)C(=O)CCOc1ccccc1C,-38.8
11,CC(C)CC(=O)Nc1ccc2oc(-c3ccncc3)nc2c1,10.9
12,Cc1c(NC(=S)NC(=O)c2cc3ccccc3o2)cccc1C(=O)O,3.01
13,CC(C)(C)NC(=O)c1cccc(NC(=O)c2ccc3c(c2)C(=O)N(C(C)(C)C)C3=O)c1,18.2
14,COCCNc1oc(/C=C/c2ccccc2OC)nc1S(=O)(=O)c1ccccc1,5.37
15,COc1cc(CNc2nc3ccccc3s2)cc(OC)c1OC,9.2
16,CC(=O)COC(=O)CCc1nc2ccccc2[nH]c1=O,0.934
17,CCN(CC)c1ccc(NC(=O)c2cccc(OC)c2)c(C)c1,7.07
18,CC1CCN(S(=O)(=O)c2c[nH]c(=O)[nH]c2=O)CC1,7.57
19,Cn1cc(/C=C2\SC(=O)NC2=S)c2ccccc21,11.2
20,COc1ccc2oc3c(c2c1)NC(=O)CN=C3c1ccccc1,19.8
